# Test results: paper PMC11995724, “Antibiotic target discovery by integrated phenotypic and activity-based profiling of electrophilic fragments” (Cell chemical biology, 2025)
# Among all 3,200 compounds or so, about 75 (2%) showed an effect of 50% or more. The list shows a part of the results.
# Test system: T1, S. aureus MSSA476
# T1 construct: MSSA476
# Set-up: species or system S. aureus MSSA476 (TSB) or V. cholerae SAD30 (LB); 384-well bacterial growth screen at 25 uM, OD600 relative to DMSO control
# Details: relative growth, OD600, TSB; 25 µM; inhibitor
row,Compound,% of control remaining [%]
1,"CC1CCCCC1NC(=O)C(C#N)=Cc1ccc(N2CCOCC2)cc1 (stereo not shown) [8-I06, 2-cyano-N-(2-methylcyclohexyl)-3-[4-(morpholin-4-yl)phenyl]prop-2-enamide]",101.245
2,"O=C(CCl)NCc1ccccc1[N+](=O)[O-] [6-A22, 2-chloro-N-[(2-nitrophenyl)methyl]acetamide]",100.39
3,"COc1ccc2nnc(CNC(=O)C(C)Cl)n2n1 (stereo not shown) [7-J15, 2-chloro-N-({6-methoxy-[1,2,4]triazolo[4,3-b]pyridazin-3-yl}methyl)propanamide]",100.471
4,"COc1cc2c(cc1NC(=O)C(C)Cl)oc1ccccc12 (stereo not shown) [6-G09, 2-chloro-N-{4-methoxy-8-oxatricyclo[7.4.0.0,2,7]trideca-1(9),2(7),3,5,10,12-hexaen-5-yl}propanamide]",106.878
5,"N#CC(=Cc1ccc(N2CCOCC2)cc1)C(=O)Nc1nccs1 [9-F17, 2-cyano-3-[4-(morpholin-4-yl)phenyl]-N-(1,3-thiazol-2-yl)prop-2-enamide]",100.075
6,"C=CC(=O)Nc1ccc(F)cc1C(C)(F)F [1-C16, N-[2-(1,1-difluoroethyl)-4-fluorophenyl]prop-2-enamide]",103.385
7,"C=CC(=O)Nc1ccc(C(=O)N[C@@H]2CCN(C(C)=O)C2)cc1 [2-F20, N-[(3R)-1-acetylpyrrolidin-3-yl]-4-(prop-2-enamido)benzamide]",124.282
8,"CC(=O)Nc1ccc(C=C(C#N)C(=O)Nc2cccc(C)c2C)cc1 [9-D19, 2-cyano-N-(2,3-dimethylphenyl)-3-(4-acetamidophenyl)prop-2-enamide]",95.8801
9,"O=C(Nc1nccs1)N1CCSSCC1 [10-O22, N-(1,3-thiazol-2-yl)-1,2,5-dithiazepane-5-carboxamide]",109.063
10,"C=CC(=O)NCc1c(F)cccc1S(=O)(=O)N(C)C [3-L15, N-{[2-(dimethylsulfamoyl)-6-fluorophenyl]methyl}prop-2-enamide]",105.529
11,"C=CC(=O)N1CCC(C(O)c2ccnn2C)CC1 (stereo not shown) [3-K03, 1-{4-[hydroxy(1-methyl-1H-pyrazol-5-yl)methyl]piperidin-1-yl}prop-2-en-1-one]",89.8563
12,"Cc1ccccc1C(C)NC(=O)C(C#N)=Cc1ccco1 (stereo not shown) [9-E06, 2-cyano-3-(furan-2-yl)-N-[1-(2-methylphenyl)ethyl]prop-2-enamide]",84.794
13,"N#CC(=CNc1ccc(F)cc1)C(=O)NCc1ccccc1 [8-E20, N-benzyl-2-cyano-3-[(4-fluorophenyl)amino]prop-2-enamide]",89.2946
14,"Cc1ccc([N+](=O)[O-])cc1N1C(=O)C=CC1=O [10-O14, 1-(2-methyl-5-nitrophenyl)-2,5-dihydro-1H-pyrrole-2,5-dione]",119.687
15,"CC(C)(C)OC(=O)[C@H]1C[C@@H]1C(=O)CCl (racemic) [10-C13, rac-tert-butyl (1R,2R)-2-(2-chloroacetyl)cyclopropane-1-carboxylate]",128.438
16,"CN(C)S(=O)(=O)c1ccc(Cl)c(NC(=O)CCl)c1 [6-H12, 2-chloro-N-[2-chloro-5-(dimethylsulfamoyl)phenyl]acetamide]",88.439
17,"Cc1cccc2[nH]cc(C(=O)CCl)c12 [10-H09, 2-chloro-1-(4-methyl-1H-indol-3-yl)ethan-1-one]",97.5
18,"CC(C)(C)N(Cc1ccccc1)C(=O)CCl [5-H20, N-benzyl-N-tert-butyl-2-chloroacetamide]",81.9672
19,"C=CC(=O)N1CCOC(c2ccccc2Cl)C1 (stereo not shown) [1-P20, 1-[2-(2-chlorophenyl)morpholin-4-yl]prop-2-en-1-one]",97.4066
20,"C=CC(=O)NCc1ccccc1-n1ccc(C)n1 [1-J19, N-{[2-(3-methyl-1H-pyrazol-1-yl)phenyl]methyl}prop-2-enamide]",110.066
21,"C=CC(=O)NC(c1nnc2n1CCC2)C(C)C (stereo not shown) [3-P07, N-(2-methyl-1-{5H,6H,7H-pyrrolo[2,1-c][1,2,4]triazol-3-yl}propyl)prop-2-enamide]",123.988
22,"Cl.O=C(CCl)NCC(c1nccs1)N1CCCC1 (stereo not shown) [6-D11, 2-chloro-N-[2-(pyrrolidin-1-yl)-2-(1,3-thiazol-2-yl)ethyl]acetamide hydrochloride]",88.0976
23,"N#CC(=Cc1cccc2ccccc12)C(=O)NCc1ccc(Cl)cc1 [8-J09, N-[(4-chlorophenyl)methyl]-2-cyano-3-(naphthalen-1-yl)prop-2-enamide]",90.9544

row,Compound,% of control remaining [%]
1,"C=CS(=O)(=O)Nc1ccccc1 [10-C07, N-phenylethene-1-sulfonamide]",117.188
2,"C=CC(=O)N(C)Cc1cc2ccccc2o1 [3-I09, N-[(1-benzofuran-2-yl)methyl]-N-methylprop-2-enamide]",108.663
3,"O=C(CCl)Cc1ccc(Cl)cc1Cl [10-A15, 1-chloro-3-(2,4-dichlorophenyl)propan-2-one]",112.188
4,"CC(Cl)C(=O)N1CCOC(c2ccc(Cl)s2)C1 (stereo not shown) [6-N07, 2-chloro-1-[2-(5-chlorothiophen-2-yl)morpholin-4-yl]propan-1-one]",105.512
5,"C=CC(=O)N1CCC(C(=O)NCc2ccc(C(N)=O)nc2)CC1 [3-N05, 5-({[1-(prop-2-enoyl)piperidin-4-yl]formamido}methyl)pyridine-2-carboxamide]",97.1702
6,"C=CC(=O)NC1CCSC(C)C1 (stereo not shown) [1-J06, N-(2-methylthian-4-yl)prop-2-enamide]",108.308
7,"CC(Cl)C(=O)Nc1sccc1C(N)=O (stereo not shown) [5-C21, 2-(2-chloropropanamido)thiophene-3-carboxamide]",96.9035
8,"C=CC(=O)NCc1cc(C(F)(F)F)on1 [3-F20, N-{[5-(trifluoromethyl)-1,2-oxazol-3-yl]methyl}prop-2-enamide]",99.9565
9,"C=CC(=O)N1CCC(C(=O)NCc2cc(C)c[nH]c2=O)CC1 [3-H03, N-[(5-methyl-2-oxo-1,2-dihydropyridin-3-yl)methyl]-1-(prop-2-enoyl)piperidine-4-carboxamide]",83.5873
10,"C=CC(=O)N1CCOC(CNC(=O)NC)C1 (stereo not shown) [3-A18, 3-methyl-1-{[4-(prop-2-enoyl)morpholin-2-yl]methyl}urea]",112.843
11,"COc1ccc(C=C(C#N)C(=O)NC2CCCCC2)cc1O [8-H13, 2-cyano-N-cyclohexyl-3-(3-hydroxy-4-methoxyphenyl)prop-2-enamide]",119.834
12,"CC(Cl)C(=O)NCCC1=CCCCCC1 (stereo not shown) [5-N19, 2-chloro-N-[2-(cyclohept-1-en-1-yl)ethyl]propanamide]",99.4536
13,"CC(Cl)C(=O)NC(=O)Nc1ccccc1 (stereo not shown) [5-I21, 3-(2-chloropropanoyl)-1-phenylurea]",105.647
14,"C=CC(=O)NCC(F)(F)C1(OC)CCC1 [3-L07, N-[2,2-difluoro-2-(1-methoxycyclobutyl)ethyl]prop-2-enamide]",118.415
15,"Cc1nn(CC(C)C)c(Cl)c1C1CCCN1C(=O)C(C)Cl (stereo not shown) [7-P19, 2-chloro-1-{2-[5-chloro-3-methyl-1-(2-methylpropyl)-1H-pyrazol-4-yl]pyrrolidin-1-yl}propan-1-one]",108.32
16,"COCc1ncc2c(n1)CC1CCC2N1C(=O)C(C)Cl (stereo not shown) [7-M20, 2-chloro-1-[5-(methoxymethyl)-4,6,12-triazatricyclo[7.2.1.0,2,7]dodeca-2,4,6-trien-12-yl]propan-1-one]",91.9937
17,"CNC(=O)c1cc(C(=O)CCl)cn1C [10-G10, 4-(2-chloroacetyl)-N,1-dimethyl-1H-pyrrole-2-carboxamide]",131.563
18,"CNC(=O)c1ccc(C2CCCCN2C(=O)C(C)Cl)n1C (stereo not shown) [7-N15, 5-[1-(2-chloropropanoyl)piperidin-2-yl]-N,1-dimethyl-1H-pyrrole-2-carboxamide]",99.843
19,"CC(Cl)C(=O)Nc1sc2c(c1C#N)CCCCC2 (stereo not shown) [5-B20, 2-chloro-N-{3-cyano-4H,5H,6H,7H,8H-cyclohepta[b]thiophen-2-yl}propanamide]",104.918
20,"C=CC(=O)N(CC)CC(=O)N1CC[S+]([O-])C(C)(C)CC1 (stereo not shown) [3-K21, N-[2-(7,7-dimethyl-1-oxo-1lambda4,4-thiazepan-4-yl)-2-oxoethyl]-N-ethylprop-2-enamide]",91.2495
21,"C=CC(=O)N1CCC(Cc2nc(C3CCC3)no2)CC1 [2-A06, 1-{4-[(3-cyclobutyl-1,2,4-oxadiazol-5-yl)methyl]piperidin-1-yl}prop-2-en-1-one]",129.504
22,"CC(=Cc1ccccc1)C=C(C#N)C(=O)Nc1ccc2c(c1)OCCO2 [9-J07, 2-cyano-N-(2,3-dihydro-1,4-benzodioxin-6-yl)-4-methyl-5-phenylpenta-2,4-dienamide]",116.554
23,"N#CC(=Cc1ccc(C#N)cc1)C(=O)Nc1ccc(F)c(Cl)c1 [9-A22, N-(3-chloro-4-fluorophenyl)-2-cyano-3-(4-cyanophenyl)prop-2-enamide]",84.4944
